# Data as given in paper PMC6919601, “Identification of Plasmodium dipeptidyl aminopeptidase allosteric inhibitors by high throughput screening” (PLoS ONE, 2019).
# Several values for one entry are separate records, joined by “and”; a condition that tells them apart may be missing. Identical values can stand only once. Out of some 110,000 compounds screened, about 230 (0.21%) showed an effect of 50% or more. This is one part of the list.
# Molecular target: DPAP1 (Plasmodium falciparum, UniProt Q8IIJ9)
# Test: primary screen, percent inhibition; read by cleavage of a fluorogenic dipeptide substrate; higher = more effect of the substance
# Design: species or system P. falciparum D10 trophozoite lysates; single well
# 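Also: 30 min substrate incubation versus DMSO and 10 µM JCP410 controls.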
# DPAP1, sequence (Q8IIJ9 whole entry, looked up): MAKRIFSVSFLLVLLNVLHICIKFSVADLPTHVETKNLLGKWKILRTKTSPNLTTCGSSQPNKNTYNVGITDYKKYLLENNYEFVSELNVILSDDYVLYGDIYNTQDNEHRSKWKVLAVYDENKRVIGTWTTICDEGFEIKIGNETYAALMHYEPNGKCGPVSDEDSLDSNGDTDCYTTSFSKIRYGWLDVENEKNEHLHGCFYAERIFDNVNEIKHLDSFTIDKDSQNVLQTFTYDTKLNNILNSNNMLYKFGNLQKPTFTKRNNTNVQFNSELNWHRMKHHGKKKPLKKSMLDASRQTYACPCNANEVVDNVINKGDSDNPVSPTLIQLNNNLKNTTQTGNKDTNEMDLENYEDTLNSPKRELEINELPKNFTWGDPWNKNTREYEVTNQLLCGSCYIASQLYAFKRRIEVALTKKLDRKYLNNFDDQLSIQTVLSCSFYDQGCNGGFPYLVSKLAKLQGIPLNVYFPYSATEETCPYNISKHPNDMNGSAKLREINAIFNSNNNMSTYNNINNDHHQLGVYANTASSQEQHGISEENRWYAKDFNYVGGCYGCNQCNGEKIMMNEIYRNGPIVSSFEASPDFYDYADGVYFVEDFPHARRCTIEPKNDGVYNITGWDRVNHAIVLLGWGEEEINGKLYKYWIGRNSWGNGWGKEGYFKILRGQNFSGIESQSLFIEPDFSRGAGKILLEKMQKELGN
row,Structure (SMILES),% Inhibition @ 10 uM
1,CCCCn1c(CN2CCC(Cc3ccccc3)CC2)nc2c1c(=O)n(C)c(=O)n2C,-2.29%
2,Cn1nc(-c2ccccc2F)c2cc(C(=O)Nc3cccnc3Cl)sc21,1.24%
3,CCCC1=C(C(=O)OCC)C(c2cccc(F)c2)C(C#N)=C(N)O1 (stereo not drawn),6.18%
4,CC(C)C[C@H](NC(=O)c1cnc2ccccc2n1)C(=O)NCC#N,-0.778%
5,O=C(O)CCNc1ccc(Br)cc1C(=O)O,3.06%
6,O=C(NCCc1ccccc1)c1ccc2nc(N3CCN(Cc4ccccc4)CC3)ccc2n1,-8.08%
7,COc1ccc(S(=O)(=O)N(C)Cc2ccccc2)cc1,0.526%
8,CCOC(=O)N1CCC(N2CCCN(C)CC2)CC1,1.43%
9,N#CCc1ccc(NC(=O)C2CCCCC2)cc1,-14.8%
10,O=[N+]([O-])c1ccc(CN2CCc3ccccc3C2)cc1,-2.03%
11,O=C1C(Sc2ccccc2)=C(O)c2cccc3cccc1c23,68.7%
12,c1ccc(COc2ccc(CNCc3cccs3)cc2)cc1,-2.76%
13,O=S(=O)(c1cccc2nsnc12)N1CCOCC1,1.24%
14,CCOc1cc(C(=O)Nc2nc(C)cc(C)n2)cc(OCC)c1OCC,-3.41%
15,CCc1nn2c(=O)cc(COc3ccc(/C=C4/C(=N)N5C=CSC5=NC4=O)cc3OC)nc2s1,2.54%
16,CC(C)C[C@H](NC(=O)N(Cc1ccccc1)Cc1ccccc1)C(=O)NCC#N,-1.82%
17,CCC(C)NC(=O)c1ccc2c(c1)c(C)c(C)n2CC (stereo not drawn),3.78%
18,CCCCOc1ccc(NC(=S)N2CCn3c4c(c5cc(C)ccc53)CCCC42)cc1 (stereo not drawn),-3.5%
19,C[n+]1cccc(C2CCCCN2C(=O)c2ccccc2)c1 (stereo not drawn),-2.87%
20,Cc1ccnc(SCC(=O)Nc2oc(-c3ccccc3)c(-c3ccccc3)c2C#N)n1,5.18%
21,C=CCNC(=O)C1CC(c2ccc(OC)cc2)=NO1 (stereo not drawn),-3.45%
22,CCCc1cc(O)nc(SCC(=O)NCCc2ccccc2)n1,-0.386%
23,O=C(c1ccccc1)N1c2ccccc2C=CC1c1cc2ccccc2[nH]1 (stereo not drawn),0.937%
24,CC(NC(=O)CCC(=O)N1Cc2ccccc2Oc2ncccc21)C12CC3CC(CC(C3)C1)C2 (stereo not drawn),2.01%
25,Cc1cc(=O)n(C(C)C(=O)NCc2ccc3c(c2)OCO3)c2c1c(C)nn2-c1ccccc1 (stereo not drawn),4.15%
26,CC(=O)Nc1nnc(-c2ccc(Cn3c(-c4cscn4)nc4ccccc43)cc2)s1,-2.63%

row,Structure (SMILES),% Inhibition @ 10 uM
1,OCCNc1ncnc2oc(-c3ccccc3)c(-c3ccccc3)c12,0.131%
2,O=C(NCc1ccccc1)C(=O)NCC1OCCc2ccccc21 (stereo not drawn),-1.52%
3,CCNc1nc(NCC)n2c(SCC(=O)c3ccccc3)nnc2n1,-1.48%
4,Cc1cc(-c2ccc(C)c(S(=O)(=O)NCCCN(Cc3ccccc3)C(C)C)c2)on1,2.74%
5,Cc1ccc(CNC(=O)C2CCC(C/N=c3/c(N4CCOCC4)c(O)c3=O)CC2)cc1 (stereo not drawn),-2.17%
6,CCC1CCCN1Cn1cnc2c3cc(OC)ccc3nc-2c1O (stereo not drawn),-3.52%
7,CCS(=O)(=O)c1nc(S(=O)(=O)c2ccc(C)cc2)c(NCCC(C)C)s1,-4.04%
8,O=C(Cn1ccc2cc(S(=O)(=O)N3CCCC3)ccc21)NCCCc1ccccc1,-1.45%
9,CCOc1ccc(C(=O)N2CCN(c3ccccc3OCC)CC2)cc1,-0.598%
10,COc1cccc(/C=C(\C#N)c2nn(CCO)c(N)c2C#N)c1OCc1ccccc1Cl,4.95%
11,COc1ccc2nc(NC(=O)c3nc(S(=O)(=O)Cc4ccc(F)cc4)ncc3Cl)sc2c1,-0.946%
12,Cc1ccccc1Cn1c(C)c(CNC(C)CCc2ccccc2)c(C(=O)O)c1C (stereo not drawn),-3.67%
13,CCN1CCCC1CNc1ncnc2c1cnn2-c1ccc(C)cc1 (stereo not drawn),0.593%
14,COc1ccc(/C=C/c2cccc[n+]2C)c(OC)c1OC,3.65%
15,O=C1NC(NS(=O)(=O)c2ccccc2)(C(F)(F)F)C(=O)N1Cc1ccco1 (stereo not drawn),3.54%
16,Cn1c(=O)[nH]c(=O)c2c1ncn2CC(O)CO (stereo not drawn),3.74%
17,CSC1=NC2(CCN(S(=O)(=O)c3ccc(C)cc3)CC2)N=C1c1ccc(Cl)cc1,-2.31%
18,O=C(c1ccc(NS(=O)(=O)c2cccc(C(F)(F)F)c2)cc1)N1CCCC1,-1.6%
19,Cc1nc2ncnn2c(C)c1CCC(=O)NCc1ccccc1,-2.25%
20,CC(C)CC(NC(=O)c1ccc(NC(=O)Nc2cccnc2)cc1)C(=O)NCC#N (stereo not drawn),-9.15%
21,C=CCn1c(SCc2ccc(F)cc2)nc2cccnc21,-0.878%
22,O=C(O)CN1C(=O)c2cc(Cl)c(Cl)cc2C1=O,3.67%
23,Cc1c(C)n(CC(O)CNCc2ccccc2)c2ccccc12 (stereo not drawn),-5.06%
24,CCCN(CCO)Cc1ccc(Br)o1,-0.446%
25,Cc1cccn2c(=O)c3cc(C#N)c(=O)n(C)c3nc12,2.73%
26,Cc1nnc(SCc2nc(-c3ccc(Br)cc3)no2)n1-c1ccccc1,2.31%

row,Structure (SMILES),% Inhibition @ 10 uM
1,Cn1cccc1-c1nc2cc(NC(=O)c3ccccc3)ccc2[nH]1,-5.34%
2,C=CCN1C=CC(=Cc2ccc3ccc(C)cc3[n+]2CC)C=C1,-6.71%
3,NC(=O)c1c(NC(=O)Cc2ccccc2)sc2c1CCCC2,-8.15%
4,Cc1csc(NC2c3ccccc3C(=O)N2Cc2ccccc2)n1 (stereo not drawn),-1.08%
5,CN1CCCN(Cc2ccc3ccccc3c2)CC1,1.55%
6,CCOC(=O)c1cc2c(=O)n3ccccc3nc2n(CC(C)C)/c1=N/C(=O)COc1ccccc1,-3.78%
7,CC(C)(C)c1ccc(C(=O)Nc2cccc(NC(=O)c3cccc4ccccc34)c2)cc1,1.13%
8,CCC(C(=O)OC)N1CC1C(=O)OC (stereo not drawn),3.42%
9,COc1cc(OC)cc(-c2nc3n(n2)C(c2ccc(F)cc2)C2=C(O)CC(C)(C)CC2=N3)c1 (stereo not drawn),-1.47%
10,CCOC(=O)c1cnc(NC(=O)CSc2nnc3sc4ccccc4n23)s1,-2.75%
11,COc1cc2oc3c(c2cc1O)CCCC3,-13.7%
12,Clc1ccccc1CNCc1cccnc1,0.98%
13,O=C(NCc1cccnc1)C1CCN(c2nnc(-n3cccc3)s2)CC1,-0.522%
14,COc1cc(NC(=O)c2ccc(C)o2)c(OC)cc1Cl,-5.13%
15,CC1CCCN(S(=O)(=O)c2ccc3[nH]c4c(c3c2)CCCC4)C1 (stereo not drawn),-1.95%
16,C(=C\c1ccnc2ccccc12)/c1ccc2c(c1)OCO2,4.67%
17,O=C(NCCN1C(=O)C2C3C=CC(C3)C2C1=O)OC1CCCCC1 (stereo not drawn),-1.17%
18,O=C(Nc1ccccc1F)c1cc2nc(C(F)F)cc(C(F)F)n2n1,-3.72%
19,CCCOc1ccccc1/C=c1/sc2ncnn2c1=O,3.34%
20,CN(C)c1ccc(C=C2C(=O)NC(=O)NC2=O)cc1Br,-1.05%
21,Cn1cc(CCC(=O)NC2CCN(Cc3ccccc3)CC2)c2ccccc21,-3.44%
22,COc1ccc(NC(=O)C2CCCCC2C(=O)O)cc1 (stereo not drawn),-2.65%
23,O=C(N/C(=C\c1ccco1)C(=O)N1CCCCCCC1)c1ccccc1,-0.725%
24,Cc1ccc(CNC(=O)c2nnc(Cc3ccc(C)cc3)o2)cc1,0.974%
25,c1cc2c[nH]nc2cc1NC1CC2CCC1C2 (stereo not drawn),5.37%
26,CSc1ncc(C(=O)NCCN(C)C)c(-c2ccccc2)n1,-1.43%

row,Structure (SMILES),% Inhibition @ 10 uM
1,CCCCOc1ccc(C(=O)NCc2cn3ccc(C)cc3n2)cc1,3.3%
2,Cc1ccc(C)c(Cn2c(C)c(CNC3CCC(C)CC3)c(C(=O)O)c2C)c1 (stereo not drawn),-5.49%
3,CCOc1ccc(NC(=O)c2c(NC(=O)CCC(=O)O)sc3c2CCCC3)cc1,4%
4,Cc1cc2c(cn1)/C(=C/c1ccccc1)c1ccccc1-2,-3.48%
5,CC1CCCCN1C(=O)c1ccc(Br)cc1 (stereo not drawn),5.32%
6,CCN(CC)CC(C)CNC(=O)c1cc(O)nc2ccc(S(=O)(=O)N3CCCCCC3)cc12 (stereo not drawn),2.05%
7,C=CCC1(CC=C)C(=O)N(C)C(=O)N(C)C1=O,-2.41%
8,O=c1oc2ccc(Br)cc2cc1-c1nc(-c2cccs2)no1,4.29%
9,COc1ccc(NC(=O)c2cccnc2)c(OC)c1,-1.22%
10,CCOC(=O)/C(C#N)=C/c1ccc(-c2ccccc2OC)o1,-11.3%
11,CC12C=CC(C)(O1)C1C(=O)N(c3ccc(Cl)cc3)C(=O)C12 (stereo not drawn),-0.63%
12,O=C(NCc1ccccc1Cl)c1cc2c(s1)CS(=O)C2 (stereo not drawn),-0.406%
13,Cc1cc(O)c(C2=NCCSC(c3cc(Br)ccc3O)C2)c(=O)o1 (stereo not drawn),4.89%
14,CC(=O)CCc1c(C)nc2ccc(C)cc2c1S,2.92%
15,COc1ccc(C)c(N2C(=O)CC(N3CCC(C(N)=O)CC3)C2=O)c1 (stereo not drawn),2.86%
16,Cc1[nH]nc(N)c1C#N,0.0882%
17,Cn1c(=O)c2c(ncn2CC(=O)Nc2ccncc2)n(C)c1=O,1.92%
18,Cc1c(Cl)cccc1NC(=O)CN1CCN(CCO)CC1,3.05% and -0.519%
19,CCc1nn(CC(=O)NCCCN(C)C2CCCCC2)c(=O)c2cc3sccc3n12,-7.1%
20,O=C1CCCC2=C1C(c1ccco1)C1=C(O)c3ccccc3C1=N2 (stereo not drawn),4.28%
21,CC(=O)c1ccc(-c2ccc(/C=C3/SC(=O)N(CC(=O)N4CCCC4)C3=O)o2)cc1,-5.66%
22,O=C(CSc1nc(-c2ccc(F)cc2)cc(C(F)(F)F)n1)NCc1cccnc1,-2.09%
23,C=CCOc1ccc(/C=C2/SC(=O)N(CN3CCCCC3)C2=O)cc1OC,2.65%
24,CC1CCN(c2nc3ccc(C(=O)NC4CCCCC4)cc3s2)CC1,6.31%
